Results on 29 compounds are retold here after PubChem BioAssay AID1745853 (National Center for Advancing Translational Sciences (NCATS), 2022).

Holding throughout (experiment): Primary Screen for Target Class Profiling of Small Molecule Inhibitors of Methyltransferases
The target in assay [1] is Glycine N-methyltransferase (Homo sapiens) (UniProt Q14749). To be noted: purified enzyme, MTase-Glo SAH luminescence; measured here: GNMT inhibition; at 40 µM; stronger effect = lower value. In a few lines:
(§1)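 Each enzyme was assayed with SAM and its substrate. SAH formation detected by MTase-Glo luminescence; single-point 40 uM screen[…].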

The target of assay [2] is Guanidinoacetate N-methyltransferase (Homo sapiens) (UniProt Q14353). The settings on record: purified enzyme, MTase-Glo SAH luminescence; measured here: GAMT inhibition; at 40 µM; stronger effect = lower value. In a few lines: as §1
The target in assay [3] is Histamine N-methyltransferase (Homo sapiens) (UniProt P50135). The settings on record: purified enzyme, MTase-Glo SAH luminescence; measured here: HNMT inhibition; at 40 µM; stronger effect = lower value. In a few lines:
as §1

Assay [4] concerns the target Nicotinamide N-methyltransferase (Homo sapiens) (UniProt P40261). The settings on record: purified enzyme, MTase-Glo SAH luminescence; measured here: NNMT inhibition; at 40 µM; stronger effect = lower value. In a few lines: as §1
In assay [5] the target is Phenylethanolamine N-methyltransferase (Homo sapiens) (UniProt P11086). The settings on record: purified enzyme, MTase-Glo SAH luminescence; measured here: PNMT inhibition; at 40 µM; stronger effect = lower value. Summed up: as §1

The list shows a part of the results. These are further read-outs of the screen, such as a control signal, another cell line or another target. No call is given for them.
On the % scale 0 is the no-effect control and ±100 the full control effect.

With `CCNC(=O)[C@@H]1CCCN1C(=O)[C@H](CCCN=C(N)N)NC(=O)[C@H](CC(C)C)NC(=O)[C@@H](C)NC(=O)[C@H](Cc1ccc(O)cc1)NC(=O)[C@H](CO)NC(=O)[C@H](Cc1c[nH]c2ccccc12)NC(=O)[C@H](Cc1cnc[nH]1)NC(=O)[C@@H]1CCC(=O)N1`, the activity change, negative = inhibition in assay [1] is -0.322%; in assay [2], -3.51%; in assay [3] it was 7.3%; in assay [4] it was -8.53%; in assay [5], 2.42%.

As to `COCCNC(=O)NC[C@H]1O[C@@H]2C[C@@H](CC(=O)N3CCC(F)(F)C3)O[C@@H]2[C@@H]1O`, the activity change, negative = inhibition in assay [1] was -0.04%; in assay [2] it was 1.41%; in assay [3], 0.218%; in assay [4], 1.04%; in assay [5], 1.94%.

As to `O=C(O)/C=C/c1cnc[nH]1`, the activity change, negative = inhibition in assay [1] is -0.036%; in assay [2], 4.87%; in assay [3] it was -0.021%; in assay [4], -3.7%; in assay [5], 3.68%.

Consider `Cc1cc(O)c(-c2ccc([C@@H](C)CN(C)C)cc2)c2c1[nH]c(=O)c1sccc12`, for which the activity change, negative = inhibition in assay [1] was -45.1%; in assay [2] it was -28.8%; in assay [3], -93.9%; in assay [4], -82.5%; in assay [5], -23.5%.

As to `COc1ccc(-c2nnc(C[C@@H]3C[C@@H](C(C)C)[C@H](CNCc4ccncc4)C=C3C)o2)cc1`, the activity change, negative = inhibition in assay [1] is -10.7%; in assay [2] it was -6.08%; in assay [3] it was -13.1%; in assay [4] it was -24.2%; in assay [5], -10.3%.

For `Cn1c(=O)c2ccnn2c2ccc(C(=O)NCC3CCN(Cc4ccccc4F)CC3)cc21`, the activity change, negative = inhibition was -12.4% in assay [1]; -8.03% in assay [2]; -21.6% in assay [3]; -57.9% in assay [4]; -4.56% in assay [5].

Consider `CCCn1c(=O)c2ccc(C(=O)NC3CCCC3)cc2n2c(=O)n(CC(=O)Nc3ccc(F)cc3)nc12`, for which the activity change, negative = inhibition in assay [1] came to 3.51%; in assay [2], 0.47%; in assay [3], 6.54%; in assay [4] it was 6.41%; in assay [5], 5.87%.

`O=C(C1CCCC1)N1CCC2(CC1)CC(c1ccccc1)=NO2`: the activity change, negative = inhibition in assay [1] is -6.6%; in assay [2], -5.61%; in assay [3] it was -0.722%; in assay [4], -9.6%; in assay [5], 5.1%.

For the compound `CCOCCCNC(=O)C1c2c(n(C)c3ccccc23)SCC(=O)N1Cc1ccc(OC)cc1` (stereo not given), the activity change, negative = inhibition is 10.5% in assay [1]; 1.15% in assay [2]; 4.66% in assay [3]; 3.02% in assay [4]; 6.15% in assay [5].

With `O=C1CC[C@H](C(=O)N2CCCCC2)N1`, the activity change, negative = inhibition in assay [1] is 6.06%; in assay [2] it was 5.76%; in assay [3], 9.48%; in assay [4], -3.81%; in assay [5] it was 5.83%.

For `NCc1c[nH]c(=S)n1C1CCc2c(F)cc(F)cc2C1` (stereo not given), the activity change, negative = inhibition was 3.48% in assay [1]; 2.59% in assay [2]; -1.7% in assay [3]; -18.8% in assay [4]; -7.66% in assay [5].

In the case of `CCCN1C(=O)c2c(C(=O)NCCc3ccccc3)ncn2CC1(C)C(=O)NCc1ccc(C)cc1` (stereo not given), the activity change, negative = inhibition in assay [1] was -1.44%; in assay [2], 0%; in assay [3], 5.85%; in assay [4] it was 2.13%; in assay [5], 4.53%.

In the case of `CC(C)CCn1c(=O)c2ccccc2n2c(=O)n(Cc3c(F)cccc3Cl)nc12`, the activity change, negative = inhibition in assay [1] is 1.59%; in assay [2] it was 0%; in assay [3], 8.39%; in assay [4], -0.223%; in assay [5] it was 4.11%.

With `O=C(CCn1ccc2cc(S(=O)(=O)N3CCCC3)ccc21)NCCc1cccs1`, the activity change, negative = inhibition in assay [1] was 2.31%; in assay [2] it was 0.002%; in assay [3] it was 3.26%; in assay [4], 2.23%; in assay [5], -0.389%.

Regarding `CCC(=O)N1CCc2cc(Br)c(S(=O)(=O)NCCN3CCN(c4ccccc4F)CC3)cc21`, the activity change, negative = inhibition in assay [1] was -11.8%; in assay [2] it was 2.29%; in assay [3] it was -6.74%; in assay [4], -11.6%; in assay [5], -11.5%.

Take `Cc1cccc2c1NC(=O)C2(c1ccc(O)cc1)c1ccc(O)cc1`: the activity change, negative = inhibition in assay [1] is -14.3%; in assay [2] it was -16.5%; in assay [3] it was -10.2%; in assay [4], -23%; in assay [5], -18.7%.

Take `CCOC(=O)N1CCC(N2CCC[C@@H](NC(=O)c3ccccc3C)C2)CC1`: the activity change, negative = inhibition is 4.84% in assay [1]; 0.647% in assay [2]; 10.6% in assay [3]; -10.7% in assay [4]; -1.02% in assay [5].

As to `CCC(=O)N1C[C@@H]2CCCN3CCC[C@@H]([C@H]23)[C@H]1CCCC(=O)NC`, the activity change, negative = inhibition in assay [1] is -3.96%; in assay [2] it was -2.51%; in assay [3] it was -5.05%; in assay [4] it was -5.96%; in assay [5], -15.6%.

As for `COc1cncc(Nc2ncc(-c3ccccc3OC)c3c2OCC3)c1`, the activity change, negative = inhibition is -52.1% in assay [1]; -35.2% in assay [2]; -20.1% in assay [3]; -33.1% in assay [4]; -51.9% in assay [5].

Consider `Cc1cnc(C2CC2)n1C1CCCN(C(=O)c2ccoc2)C1` (stereo not given), for which the activity change, negative = inhibition in assay [1] is -7.12%; in assay [2], -9.13%; in assay [3] it was -28.1%; in assay [4], -13%; in assay [5], -2.01%.

Take `C[C@@H]1O[C@@H](O[C@@H]2\C=C/C=C\C=C/C=C\C[C@H](C)OC(=O)/C=C\[C@H]3O[C@@H]3C[C@H](O)C[C@]3(O)C[C@@H](O)[C@@H](C(=O)O)[C@H](C2)O3)[C@H](O)[C@H](N)[C@@H]1O`: the activity change, negative = inhibition is -8.32% in assay [1]; -25.5% in assay [2]; 5.77% in assay [3]; -25.5% in assay [4]; -4.54% in assay [5].

With `C[C@]1(C2CCCC2)Cc2cc(OCC(=O)O)c(Cl)c(Cl)c2C1=O`, the activity change, negative = inhibition in assay [1] was -0.936%; in assay [2], 0.447%; in assay [3] it was 13.3%; in assay [4], -54.3%; in assay [5], 5.31%.

As to `CC(=O)Nc1ccc2c(c1)S(=O)(=O)N=C(CC(C)C)N2c1ccccc1`, the activity change, negative = inhibition was -9% in assay [1]; -9.27% in assay [2]; -12.9% in assay [3]; -24.4% in assay [4]; -10.2% in assay [5].

For `CC(C)CCNC(=O)C1(C)Cn2c(c(-n3cccc3)c3ccccc32)C(=O)N1Cc1cccs1` (stereo not given), the activity change, negative = inhibition in assay [1] is 2.73%; in assay [2] it was 4.18%; in assay [3], -3.06%; in assay [4], 0.036%; in assay [5] it was -2.35%.

With `COc1cccc(CNC(=O)c2cc3n(n2)CC(C)(C(=O)NC2CCCCCC2)N(C)C3=O)c1` (stereo not given), the activity change, negative = inhibition is 2.06% in assay [1]; 1.08% in assay [2]; 2.58% in assay [3]; 5.11% in assay [4]; -0.612% in assay [5].

In the case of `COC(=O)Nc1cc(C2CC2)nn1C`, the activity change, negative = inhibition is -3.34% in assay [1]; -7.75% in assay [2]; -0.92% in assay [3]; -10.6% in assay [4]; -6.62% in assay [5].

As to `Cn1c(=O)c2ccc(C(=O)NC3CCCC3)cc2n2c(SCC(=O)Nc3cc(F)ccc3F)nnc12`, the activity change, negative = inhibition in assay [1] was -5.01%; in assay [2], 3.09%; in assay [3], -0.276%; in assay [4], 1.37%; in assay [5], 1.63%.

`CC1=C2C[C@@]3(C)C(CCC[C@@H]3C)C(O)C2(O)OC1=O` (stereo not given in full): the activity change, negative = inhibition in assay [1] was -3.76%; in assay [2], -0.093%; in assay [3], 6.08%; in assay [4], -16.6%; in assay [5], -10.4%.

On to `Cc1ccc(C)c(S(=O)(=O)c2nnn3c2nc(NCCCOC(C)C)c2ccccc23)c1`, for which the activity change, negative = inhibition in assay [1] is -3.11%; in assay [2], 0%; in assay [3] it was 3.85%; in assay [4], -5.35%; in assay [5], -3.67%.
